{"source": "ChEMBL document CHEMBL4888484", "about": "“Replenishing the malaria drug discovery pipeline: Screening and hit evaluation of the MMV Hit Generation Library 1 (HGL1) against asexual blood stage Plasmodium falciparum ,using a nano luciferase reporter read-out” (2022)", "note": "Screen size: about 150,000 compounds; about 540 (0.36%) showed an effect of 50% or more. The list shows a part of the results.", "data": [{"tested_on": "Plasmodium falciparum", "experiment": "Primary screen in NF54 nanoGlo assay, in single point, at 2uM, 72h; a lower Z score goes with more inhibition", "type": "functional, Erythrocyte", "conditions": "timepoint 72 hour", "units": {"% Inhibition": "%"}, "values": [{"smiles": "O=C(NCc1cccs1)N1CCOCC1CC(O)c1ccccc1", "note": "(stereo not given)", "% Inhibition": 4, "Z score": -0.7}, {"smiles": "Cc1cccc(-n2nc(C)c3sc(N4CCCN(C(=O)c5cc(F)ccc5F)CC4)nc32)c1", "% Inhibition": -5, "Z score": 0.84}, {"smiles": "CCN1C(=O)CN(C(=O)c2cccnc2)CC12CCOCC2", "% Inhibition": -5, "Z score": 0.7}, {"smiles": "Cc1cccnc1NC(=O)C(F)(F)[C@@]1(F)OC(F)(F)C(F)(F)C1(F)F", "% Inhibition": -28, "Z score": 3.29}, {"smiles": "CN(C[C@H]1COc2ccccc2O1)C(=O)c1cccc(-n2ccnc2)c1", "% Inhibition": -10, "Z score": 0.94}, {"smiles": "NC(=O)c1cnc2n1CCN(C(=O)c1cnn3ccccc13)C2", "% Inhibition": 1, "Z score": -0.23}, {"smiles": "O=C(NCc1ccc(F)cc1)[C@@]1(CCO)CCN(Cc2ccccc2)C1", "% Inhibition": -7, "Z score": 1.4}, {"smiles": "O=C1OC2(CCN(S(=O)(=O)c3c(F)cccc3F)CC2)c2ccccc21", "% Inhibition": -2, "Z score": 0.46}, {"smiles": "O=C(Cc1ccc(-c2ccccc2)cc1)N[C@@H]1COC2(CCNCC2)C1", "% Inhibition": 5, "Z score": -0.67}, {"smiles": "CC(C)c1ccc(NC(=O)N2CCC(C3CCOC3)C2)cc1F", "note": "(stereo not given)", "% Inhibition": -9, "Z score": 1.25}, {"smiles": "CN(Cc1ccccn1)C(=O)[C@@H]1CC(c2cc(F)ccc2F)=NO1", "% Inhibition": -2, "Z score": 0.22}, {"smiles": "CN(Cc1ccco1)c1ccc(-c2nc(-c3ccc(F)cc3)no2)cn1", "% Inhibition": 5, "Z score": -0.59}, {"smiles": "CC(=O)N1CCC([C@@H]2CN(C(=O)c3cccc(C)n3)C[C@H]2COc2ccccc2)CC1", "% Inhibition": -3, "Z score": 0.3}, {"smiles": "CN(C[C@H]1CC(=O)N(C(C)(C)C)C1)c1ncnc2[nH]ccc12", "% Inhibition": -4, "Z score": 0.62}, {"smiles": "Fc1ccccc1[C@@H]1C=C(c2ccncc2)Nc2nc(C(F)(F)F)nn21", "% Inhibition": 14, "Z score": -1.67}, {"smiles": "Cn1cc(S(=O)(=O)N2CCCCCC2)cc1C(=O)Nc1ccc2c(c1)OCCO2", "% Inhibition": -1, "Z score": 0.09}, {"smiles": "Cc1cc(C)nc(NCCC(=O)Nc2ccccn2)n1", "% Inhibition": 2, "Z score": -0.25}, {"smiles": "CC(C)S(=O)(=O)CC(=O)NCCOc1ccc(C(C)(C)C)cc1", "% Inhibition": -20, "Z score": 1.81}, {"smiles": "Nc1c2c(nn1[C@H]1CCS(=O)(=O)C1)CCCC2", "% Inhibition": 15, "Z score": -1.95}, {"smiles": "CCC(CC)C(=O)NC(C)C(O)Cc1ccccc1", "note": "(stereo not given)", "% Inhibition": -1, "Z score": 0.09}, {"smiles": "CC(C)C(=O)N1CCN(c2cc(-n3ccnc3)ncn2)CC1", "% Inhibition": -14, "Z score": 1.9}, {"smiles": "COC1CCC(CC(=O)Nc2cc(-c3nnn[nH]3)ccc2F)CC1", "note": "(stereo not given)", "% Inhibition": -5, "Z score": 0.62}, {"smiles": "Cc1nc(N2CCC(C)CC2)ncc1-c1cc(=O)[nH]c(NCc2ccccc2)n1", "% Inhibition": 36, "Z score": -4.7}, {"smiles": "CC[C@H](NS(=O)(=O)Cc1cc(F)ccc1Cl)C1CC(O)C1", "note": "(stereo not given in full)", "% Inhibition": -8, "Z score": 1.02}, {"smiles": "Cc1cc(C(=O)NCCn2c(C)cnc2-c2cccnc2)nn1C", "% Inhibition": 7, "Z score": -1.33}, {"smiles": "CCC(=O)Nc1ccc2c(c1)CN(C(=O)COc1ccccc1)[C@H](C(=O)N1CCCC1)C2", "% Inhibition": -5, "Z score": 0.76}, {"smiles": "O=C(Nc1ccccc1)OC1CS(=O)(=O)CC1OC(=O)Nc1ccccc1", "note": "(stereo not given)", "% Inhibition": 6, "Z score": -0.79}, {"smiles": "CCC(O)C1CCCCN1CCS(=O)(=O)C(C)C", "note": "(stereo not given)", "% Inhibition": -6, "Z score": 0.84}, {"smiles": "Cc1nnc(N2CCN(CC(F)(F)F)C[C@H](C)C2)nc1C", "% Inhibition": -7, "Z score": 0.87}, {"smiles": "O=C1CCc2cc(NC(=O)[C@@H]3CC=CCC3)ccc2N1", "% Inhibition": -7, "Z score": 1.09}, {"smiles": "Cc1ccc(NC(=O)CS(=O)(=O)CCC(F)(F)F)c(C)c1", "% Inhibition": -7, "Z score": 1.18}, {"smiles": "Cc1nc(CN2CC[C@@H](C(=O)O)c3ccccc32)sc1C", "% Inhibition": -2, "Z score": 0.21}, {"smiles": "CCO[C@H]1COC[C@@H]1NC(=O)c1ccn(C)c1C", "% Inhibition": -20, "Z score": 2.51}, {"smiles": "CCO[C@H]1C[C@H](NC(=O)Nc2ccnnc2)C1", "% Inhibition": -5, "Z score": 0.75}, {"smiles": "Cc1n[nH]c(C(=O)NCC[C@H]2CCC3(CCC3)O2)c1O", "% Inhibition": 3, "Z score": -0.54}, {"smiles": "CCCn1cc(CN/C(=N\\c2ccc(OCC)cc2)NC(=O)c2ccc3c(c2)OCO3)c(C)n1", "% Inhibition": -7, "Z score": 1.24}, {"smiles": "CC(=O)N[C@H](c1nc(CC(C)C)n[nH]1)C(C)C", "% Inhibition": 8, "Z score": -1.04}, {"smiles": "CC(C)(C)c1ccc(OCc2n[nH]c(C3(CO)CC3)n2)cc1", "% Inhibition": 13, "Z score": -1.77}, {"smiles": "CN(C)C(=O)CNc1c(Cl)cccc1Cl", "% Inhibition": -15, "Z score": 1.31}, {"smiles": "CC(C)C[C@]1(CO)CCCN1C(=O)NCC(C)(C)c1cccs1", "% Inhibition": -7, "Z score": 1.19}, {"smiles": "Cc1cc(C)nc(-c2cccc(C(=O)N(C)C[C@H]3COc4ccccc4O3)c2)c1", "% Inhibition": -1, "Z score": 0.14}, {"smiles": "Cc1ccc(NC(=O)c2cc(CN3CCCC3)on2)c(Cl)c1", "% Inhibition": -5, "Z score": 0.88}, {"smiles": "CN(C)C(=O)NC1CCC(=O)NC1C1CCCO1", "note": "(stereo not given)", "% Inhibition": -10, "Z score": 1.17}, {"smiles": "Cc1cccc(NC(=O)C(=O)N2CC[C@H](O)[C@@H](O)C2)c1C", "% Inhibition": 0, "Z score": -0.07}, {"smiles": "Cc1nnc(NC(=O)[C@H]2CCCN(C(=O)c3cccs3)C2)s1", "% Inhibition": 3, "Z score": -0.35}, {"smiles": "Cc1nnc(COC(=O)c2ccc3noc(-c4ccccc4)c3c2)o1", "% Inhibition": -13, "Z score": 2.11}, {"smiles": "c1ccc(C2=NN(c3ccccc3)[C@H](c3cccc4nccnc34)C2)cc1", "% Inhibition": 0, "Z score": 0.06}, {"smiles": "COc1ccc2[nH]cc(C(=O)N[C@H]3COCC[C@@H]3O)c(=O)c2c1", "% Inhibition": -6, "Z score": 0.97}, {"smiles": "Cc1ccc(CCC(=O)N[C@@]2(CCO)CCOC2)s1", "% Inhibition": 6, "Z score": -0.77}, {"smiles": "O=C(NCC(=O)N1CCN(c2nccn3nc4c(c23)CCCC4)CC1)OCc1ccccc1", "% Inhibition": 4, "Z score": -0.52}, {"smiles": "O=C(Nc1ccc(-c2ccccn2)cn1)c1cncc(O)c1", "% Inhibition": -14, "Z score": 1.29}, {"smiles": "CN1C(=O)C[C@@H](C#N)[C@@H]1c1cnn(Cc2ccccc2)c1", "% Inhibition": 25, "Z score": -2.87}, {"smiles": "COc1ccc(Cc2nc(-c3ccc4c(c3)[nH]c(=O)n4C(C)C)no2)cc1", "% Inhibition": -1, "Z score": 0.23}, {"smiles": "COC(=O)C1(NC(=O)[C@H]2CCCO2)CCC1", "% Inhibition": -18, "Z score": 2.62}, {"smiles": "Cc1c(C(=O)N2CCNC(=O)C2)sc2ncnc(NCc3cc4ccccc4s3)c12", "% Inhibition": -14, "Z score": 1.58}, {"smiles": "Cc1nc2c([nH]1)CN(C(=O)COC(C)C)CC2", "% Inhibition": 8, "Z score": -1.49}, {"smiles": "C[C@@H](CN(C)CCO)NCc1cccc(F)c1", "% Inhibition": -6, "Z score": 1.09}, {"smiles": "CO[C@H]1CCOC[C@@H]1NC(=O)c1ncc(F)cc1F", "% Inhibition": 0, "Z score": -0.03}, {"smiles": "O=C(Cc1cccc(Br)c1)N[C@H]1CCCNC1", "% Inhibition": -4, "Z score": 0.44}, {"smiles": "O=C(NCc1cc(F)cc(F)c1)c1nn[nH]c1Nc1ccccc1F", "% Inhibition": -6, "Z score": 0.72}, {"smiles": "C[C@H]1CN(CC(=O)NCCc2ccc(F)cc2)CC[C@]1(O)C1CC1", "% Inhibition": -11, "Z score": 1.46}, {"smiles": "CCNC(=O)[C@H](C)NC(=O)OCc1ccc(Cl)cc1", "% Inhibition": -2, "Z score": 0.33}, {"smiles": "CC(=O)N1CCN(Cc2nc(-c3ccc4c(c3)CC(=O)N4C)c(C)s2)CC1", "% Inhibition": 26, "Z score": -3.74}, {"smiles": "Cc1cc(CC(=O)N[C@@](C)(CC(=O)O)c2ccc(F)cc2)no1", "% Inhibition": 11, "Z score": -1.42}, {"smiles": "C[C@H]1c2nncn2CCN1C(=O)c1ccc2scnc2c1", "% Inhibition": 0, "Z score": 0.02}, {"smiles": "O=S(=O)(c1ccc2nc(N3CCN(Cc4ccc5c(c4)OCO5)CC3)cnc2c1)N1CCCCC1", "% Inhibition": -7, "Z score": 1.21}, {"smiles": "Cc1ccnc(N(C)[C@H]2CCN(c3ccccc3)C2=O)n1", "% Inhibition": -5, "Z score": 0.68}, {"smiles": "O=C(c1cc(-c2ccccc2)on1)N1CCc2[nH]cnc2C1", "% Inhibition": -1, "Z score": 0.26}, {"smiles": "Cc1nc(N2CCC(N3CCc4ccccc4C3)CC2)c2cnn(C)c2n1", "% Inhibition": -2, "Z score": 0.48}, {"smiles": "CCC(=O)N1CCC[C@@](NCc2c(C)nn(C)c2C)(c2nnnn2C2CCCC2)C1", "% Inhibition": -19, "Z score": 2.49}, {"smiles": "CCN(C(C)=O)c1nc(CN2CCC[C@H]2c2cnn(C)c2)cs1", "% Inhibition": 11, "Z score": -2.05}, {"smiles": "Cn1cc(CN(CCO)C(=O)c2ccc3nc(-c4ccccc4)cn3c2)cn1", "% Inhibition": -10, "Z score": 1.55}, {"smiles": "Cc1c[nH]c(CNS(=O)(=O)N2CCCC2)c(C)c1=O", "% Inhibition": -2, "Z score": 0.28}, {"smiles": "CC(C)Oc1ccc([C@@H](O)CNC(=O)C(C)(C)C)cc1", "% Inhibition": -4, "Z score": 0.58}, {"smiles": "COc1ccc2nnc(CNC(=O)c3cnc(C)cn3)n2n1", "% Inhibition": 23, "Z score": -2.92}, {"smiles": "COc1cccc(NC(=O)NC2CS(=O)(=O)C2)n1", "% Inhibition": -4, "Z score": 0.89}, {"smiles": "CC1=NN(C2CCS(=O)(=O)C2)C(=O)C1C(=O)c1cn(C)c2ccccc12", "note": "(stereo not given)", "% Inhibition": 6, "Z score": -1.18}, {"smiles": "Cn1nc(-c2ccc(Cl)cc2)c2cc(C(=O)O)sc21", "% Inhibition": -8, "Z score": 1.34}, {"smiles": "Cc1c(Cl)ccc2c1N(C(=O)c1ccn(C)c(=O)c1)CCC2", "% Inhibition": 6, "Z score": -0.69}, {"smiles": "Cc1ccc2c(=O)n(CC3(Cn4cccn4)CC3)cnc2c1C", "% Inhibition": -18, "Z score": 1.61}, {"smiles": "Cc1cc(C)c2[nH]c(C(=O)NC3CCN(C[C@H]4CCCO4)CC3)c(C)c2c1", "% Inhibition": -12, "Z score": 1.83}, {"smiles": "O=S(=O)(Nc1ccc(-c2cc3cc(F)ccc3[nH]2)cc1)c1cccc(F)c1", "% Inhibition": -5, "Z score": 0.86}, {"smiles": "Cc1noc([C@H]2CCN(c3nc4cc(Br)ccc4o3)C2)n1", "% Inhibition": -4, "Z score": 0.62}, {"smiles": "N#Cc1cnc(N2CC[C@H](N3CCCCC3)C2)nc1N", "% Inhibition": -20, "Z score": 2.33}, {"smiles": "Cc1ccnc(-n2cc(S(=O)(=O)NCc3ccc(S(N)(=O)=O)cc3)cn2)c1", "% Inhibition": 31, "Z score": -3.45}]}]}
